# According to the supplement of paper PMC8728848:
# The other results are listed elsewhere or left out.
# B1: PX15618B-bfa-464-25-464 (Bacteroides fragilis) (protein)
# chain: DQEPPLYVNENDIFTSPTRIEATLNGLYAAIKNTGTKSLMGGKSYLVFDNRGDDVINISNNLVTLFNTYNMNVGITDAENADTWTYAYLAINKVNTFLQSLEGAREVAGENYDRYVQEAKFVRALAYYYLNNLYPTPYSVNPDAKSVPLRLTAEAGTENNNMPRSTVKQIYEHILSDLENISALDTEVNTYTGVTHATQAAANMLKMRVYMAMNEWDKAITAGELVTGYSLPEDVTLIYKAPYFSQESIFSLPMADTNIPNTQQSLAEYYYDGKIMLIDTKSGIMSKPDYSLATDKRIIAFKGEKDLLMKFTDAKTKLQWVPIFRYAETLLDLAECYANKAGGEATAKSLLKQVRGRSVDAATDPLNIDNLSGDALKEAIYNEKRLEFIGEGIRGIDIMRRGEHFIKVGENETINVGPSDEKYTWPIPQVELLLNKDINK
# Assays:
# Test in all cases: glycan array binding signal (z-score within array); higher = stronger binding
# Details in all cases: glycan notation: IUPAC condensed, linker removed
# [1] = molecular target: Gal(b1-4)GlcNAc(b1-6)GalNAc
# Outline: (§1)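 The binding signal is a Z-score computed within each array. Data were drawn from 3228 arrays in the Consortium for Functional Glycomics database, restricted to those with a known protein sequence. Scores were averaged over arrays of the same protein sequence at different concentrations or buffers, and over linkers, and negative values can be taken as non-binding.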
# [2] = molecular target: Gal(b1-4)GlcNAc(b1-6)[Gal(b1-3)]GalNAc
# Outline: as §1
# [3] = molecular target: Gal(b1-4)GlcNAc(b1-6)[Gal(b1-4)GlcNAc(b1-3)]GalNAc
# Outline: as §1
# Gal(b1-4)GlcNAc6P = molecular target: Gal(b1-4)GlcNAc6P
# Outline: as §1
# Gal(b1-6)Gal = molecular target: Gal(b1-6)Gal
# Outline: as §1
# Gal3S(b1-3)GalNAc = molecular target: Gal3S(b1-3)GalNAc
# Outline: as §1
# Gal3S(b1-3)GlcNAc = molecular target: Gal3S(b1-3)GlcNAc
# Outline: as §1
# [4] = molecular target: Gal3S(b1-3)[Fuc(a1-4)]GlcNAc
# Outline: as §1
# Gal3S(b1-4)Glc = molecular target: Gal3S(b1-4)Glc
# Outline: as §1
# Gal3S(b1-4)Glc6S = molecular target: Gal3S(b1-4)Glc6S
# Outline: as §1
# Gal3S(b1-4)GlcNAc = molecular target: Gal3S(b1-4)GlcNAc
# Outline: as §1
# [5] = molecular target: Gal3S(b1-4)[Fuc(a1-3)]Glc6S
# Outline: as §1
# [6] = molecular target: Gal3S(b1-4)[Fuc(a1-3)]GlcNAc
# Outline: as §1
# [7] = molecular target: Gal3S(b1-4)[Fuc(a1-3)]GlcNAc6S
# Outline: as §1
# Gal3S4S(b1-4)GlcNAc = molecular target: Gal3S4S(b1-4)GlcNAc
# Outline: as §1
# Gal3S6S(b1-4)GlcNAc = molecular target: Gal3S6S(b1-4)GlcNAc
# Outline: as §1
# Gal3S6S(b1-4)GlcNAc6S = molecular target: Gal3S6S(b1-4)GlcNAc6S
# Outline: as §1
# Gal4S(b1-4)GlcNAc = molecular target: Gal4S(b1-4)GlcNAc
# Outline: as §1
# Gal4S6S(b1-4)GlcNAc = molecular target: Gal4S6S(b1-4)GlcNAc
# Outline: as §1
# Gal6P(b1-4)GlcNAc = molecular target: Gal6P(b1-4)GlcNAc
# Outline: as §1
# Gal6S(b1-3)GlcNAc = molecular target: Gal6S(b1-3)GlcNAc
# Outline: as §1
# Gal6S(b1-3)GlcNAc6S = molecular target: Gal6S(b1-3)GlcNAc6S
# Outline: as §1
# Gal6S(b1-4)Glc = molecular target: Gal6S(b1-4)Glc
# Outline: as §1
# Gal6S(b1-4)Glc6S = molecular target: Gal6S(b1-4)Glc6S
# Outline: as §1
# Gal6S(b1-4)GlcNAc = molecular target: Gal6S(b1-4)GlcNAc
# Outline: as §1
# Gal6S(b1-4)GlcNAc6S = molecular target: Gal6S(b1-4)GlcNAc6S
# Outline: as §1
# GalNAc(a1-3)Gal = molecular target: GalNAc(a1-3)Gal
# Outline: as §1
# GalNAc(a1-3)GalNAc = molecular target: GalNAc(a1-3)GalNAc
# Outline: as §1
# [8] = molecular target: GalNAc(a1-3)GalNAc(b1-3)Gal(a1-4)Gal(b1-4)Glc
# Outline: as §1
# [9] = molecular target: GalNAc(a1-3)GalNAc(b1-3)Gal(a1-4)Gal(b1-4)GlcNAc
# Outline: as §1
# GalNAc(b1-3)Gal = molecular target: GalNAc(b1-3)Gal
# Outline: as §1
# [10] = molecular target: GalNAc(b1-3)Gal(a1-4)Gal(b1-4)GlcNAc
# Outline: as §1
# [11] = molecular target: GalNAc(b1-3)Gal(a1-4)Gal(b1-4)GlcNAc(b1-3)Gal(b1-4)Glc
# Outline: as §1
# [12] = molecular target: GalNAc(b1-3)Gal(a1-6)Gal(b1-4)Glc
# Outline: as §1
# GalNAc(b1-3)GalNAc = molecular target: GalNAc(b1-3)GalNAc
# Outline: as §1
# GalNAc(b1-3)GlcNAc = molecular target: GalNAc(b1-3)GlcNAc
# Outline: as §1
# GalNAc(b1-4)Gal(b1-4)Glc = molecular target: GalNAc(b1-4)Gal(b1-4)Glc
# Outline: as §1
# GalNAc(b1-4)GlcNAc = molecular target: GalNAc(b1-4)GlcNAc
# Outline: as §1
binder,measurement,setting,value
B1,glycan array binding signal (z-score),[1],0.074
same,glycan array binding signal (z-score),[2],-0.268
same,glycan array binding signal (z-score),[3],0.491
same,glycan array binding signal (z-score),Gal(b1-4)GlcNAc6P,-0.626
same,glycan array binding signal (z-score),Gal(b1-6)Gal,-0.172
same,glycan array binding signal (z-score),Gal3S(b1-3)GalNAc,-0.122
same,glycan array binding signal (z-score),Gal3S(b1-3)GlcNAc,-0.126
same,glycan array binding signal (z-score),[4],-0.397
same,glycan array binding signal (z-score),Gal3S(b1-4)Glc,0.162
same,glycan array binding signal (z-score),Gal3S(b1-4)Glc6S,-0.055
same,glycan array binding signal (z-score),Gal3S(b1-4)GlcNAc,-0.305
same,glycan array binding signal (z-score),[5],0.38
same,glycan array binding signal (z-score),[6],0.137
same,glycan array binding signal (z-score),[7],0.421
same,glycan array binding signal (z-score),Gal3S4S(b1-4)GlcNAc,-0.294
same,glycan array binding signal (z-score),Gal3S6S(b1-4)GlcNAc,0.078
same,glycan array binding signal (z-score),Gal3S6S(b1-4)GlcNAc6S,-0.475
same,glycan array binding signal (z-score),Gal4S(b1-4)GlcNAc,-0.483
same,glycan array binding signal (z-score),Gal4S6S(b1-4)GlcNAc,-0.852
same,glycan array binding signal (z-score),Gal6P(b1-4)GlcNAc,-0.53
same,glycan array binding signal (z-score),Gal6S(b1-3)GlcNAc,-0.328
same,glycan array binding signal (z-score),Gal6S(b1-3)GlcNAc6S,-0.297
same,glycan array binding signal (z-score),Gal6S(b1-4)Glc,-0.133
same,glycan array binding signal (z-score),Gal6S(b1-4)Glc6S,0.521
same,glycan array binding signal (z-score),Gal6S(b1-4)GlcNAc,-0.779
same,glycan array binding signal (z-score),Gal6S(b1-4)GlcNAc6S,-0.259
same,glycan array binding signal (z-score),GalNAc(a1-3)Gal,-0.083
same,glycan array binding signal (z-score),GalNAc(a1-3)GalNAc,-0.504
same,glycan array binding signal (z-score),[8],-0.638
same,glycan array binding signal (z-score),[9],-0.273
same,glycan array binding signal (z-score),GalNAc(b1-3)Gal,-0.246
same,glycan array binding signal (z-score),[10],0.922
same,glycan array binding signal (z-score),[11],-0.421
same,glycan array binding signal (z-score),[12],-0.269
same,glycan array binding signal (z-score),GalNAc(b1-3)GalNAc,0.556
same,glycan array binding signal (z-score),GalNAc(b1-3)GlcNAc,-0.627
same,glycan array binding signal (z-score),GalNAc(b1-4)Gal(b1-4)Glc,-0.411
same,glycan array binding signal (z-score),GalNAc(b1-4)GlcNAc,-0.531
